About 150 (0.041%) of roughly 370,000 compounds were called active. The inconclusive results got no clear call from the source; some entries with a clear call stand among them for comparison. Calls come from the whole dose curve; as a rule, active = well fitted inhibition curve with a large enough effect; inconclusive = small, poorly fitted or top-dose-only effect; inactive = flat fitted curve, though single readings scatter. No potency is given beside an inconclusive call; the fits are too rough.
target: Beta-lactamase (Escherichia coli (strain K12)) (UniProt P00811); experiment: qHTS Inhibitors of AmpC Beta-Lactamase (assay with detergent); details: AmpC hydrolysis of nitrocefin, absorbance 480 nm, 0.01% Triton; series mostly up to 114 µM; note: nearly all actives have a fitted effect of over 25% in size
Summary of the method: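 AmpC (5.3 nM in the dispensed reagent) in 20 mM phosphate pH 7.0 with 0.01% (detergent screen) or 0.0001% Triton X-100 was preincubated with compounds for 15 min at room temperature. Nitrocefin was then added from an 800 uM solution, and hydrolysis was followed at 480 nm.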
Potency is the fitted concentration of half-maximal effect; tags give direction and shape of the fitted curve.

Chain of UniProt P00811 (P00811 whole entry, looked up): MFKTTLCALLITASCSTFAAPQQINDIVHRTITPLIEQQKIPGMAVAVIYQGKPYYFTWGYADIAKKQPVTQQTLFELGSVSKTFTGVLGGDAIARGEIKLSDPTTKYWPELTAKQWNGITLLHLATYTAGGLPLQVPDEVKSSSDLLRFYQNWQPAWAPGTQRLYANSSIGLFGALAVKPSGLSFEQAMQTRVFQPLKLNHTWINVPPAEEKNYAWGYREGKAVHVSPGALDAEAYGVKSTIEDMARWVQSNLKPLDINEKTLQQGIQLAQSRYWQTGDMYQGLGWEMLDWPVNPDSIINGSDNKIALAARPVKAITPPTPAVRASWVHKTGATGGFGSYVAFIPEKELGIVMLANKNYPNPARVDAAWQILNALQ

| Structure (SMILES) | Potency |
| --- | --- |
| COc1ccc(Cl)cc1CSc1n[nH]c(C)n1 | inconclusive [inhibitor, full curve, poor fit] |
| COc1ccccc1C(=O)Nc1ccc(N2CCN(Cc3ccccc3)CC2)cc1 | inconclusive [inhibitor, full curve, poor fit] |
| COc1ccc(-c2nc(CSCC(=O)NCCc3ccc(OC)c(OC)c3)c(C)o2)cc1 | inactive |
| Cc1ccc(-n2nc3c(c2NC(=O)c2ccc4c(c2)OCO4)CS(=O)C3)cc1 (configuration not stated) | inconclusive [inhibitor, full curve] |
| Cc1ccc(/C=C/C(=O)NC2CCCCCCC2)o1 | inactive |
| CCCNC(=O)c1ccccc1NC(=O)CN(c1ccccc1)S(=O)(=O)N(C)C | inactive |
| Cc1ccc(NC(=O)c2cc(NC(=O)c3ccco3)ccc2N2CCOCC2)cc1Cl | inconclusive [inhibitor, single point] |
| CC(C)C(=O)N1CCN(c2ccccc2NC(=O)Cc2ccc(Cl)cc2)CC1 | inconclusive [inhibitor, full curve] |
| O=C(O)CSc1ncnc2scc(-c3ccc(Br)cc3)c12 | inactive |
| CCOC(=O)C1=C(N)Oc2cc(C)oc(=O)c2C12C(=O)N1c3c(cccc32)C(C)=CC1(C)C (configuration not stated) | inconclusive [inhibitor, full curve, poor fit] |
| COc1ccc(C(C(=O)NC(C)(C)C)N(C(=O)CNC(=O)c2cccs2)c2ccc(C)cc2)cc1OC (configuration not stated) | inconclusive [inhibitor, full curve, poor fit] |
| CC(=O)c1cccc(N(CC(=O)N2CCCC2)S(C)(=O)=O)c1 | inconclusive [inhibitor, partial curve, poor fit] |
| Cc1ccc(S(=O)(=O)N(CCO)Cc2ccccc2)cc1 | inconclusive [inhibitor, single point] |
| COc1cc(NC(=O)CN(C)S(=O)(=O)c2ccc3c(c2)CCC(=O)N3)cc(OC)c1 | inconclusive [inhibitor, partial curve, poor fit] |
| O=C(NCC1CCCO1)C(c1cccs1)N(C(=O)c1ccc(CN2CCOCC2)o1)c1ccc(Cl)cc1 (configuration not stated) | inconclusive [inhibitor, single point] |
| CCOC(=O)c1nnsc1NC(=O)Nc1ccc(OC)cc1 | inconclusive [inhibitor, full curve, poor fit] |
| CC(C)(C)NC(=S)Nc1ccc(Nc2ccccc2)cc1 | inactive |
| CCc1ccc(S(=O)(=O)NCc2csc(C)n2)cc1 | inconclusive [inhibitor, partial curve] |
| Cc1ccc(S(=O)(=O)N(C)Cc2ccc(C(=O)N/N=C/c3ccc(OC(F)F)cc3OC(F)F)cc2)cc1 | inconclusive [inhibitor, full curve] |
| COc1ccc(Cn2c3ccc(OC)cc3c3nc4ccccc4nc32)cc1 | inconclusive [inhibitor, single point] |
| Cc1nn(-c2ccc(N3CCCCC3)nn2)c(C)c1CCC(=O)Nc1cc(F)ccc1F | inactive |
| CN1c2ccccc2C(C)(C)[C@]12C=Cc1cc(O)ccc1O2 | inactive |
| O=C(c1ccccc1)c1cn(CC(=O)N2CCCC2)c2ccccc12 | inconclusive [inhibitor, full curve, poor fit] |

| Structure (SMILES) | Potency |
| --- | --- |
| Cc1nn(-c2ccccc2)c2nc(-c3ccco3)cc(C(=O)O)c12 | inconclusive [inhibitor, partial curve] |
| CCC1C(C#N)=C(N)OC2=C1C(=O)CC(C)(C)C2 (configuration not stated) | inconclusive [inhibitor, full curve, poor fit] |
| CCc1ccc(C(CNC(=O)c2ccc3c(=O)n(-c4ccccc4F)c(=S)[nH]c3c2)N(C)C)cc1 (configuration not stated) | inconclusive [inhibitor, single point] |
| O=C(COC(=O)CCC(=O)c1cccs1)NC(=O)c1ccc(OC(F)F)cc1 | inconclusive [inhibitor, full curve, poor fit] |
| CCOC(=O)C1CCN(C(=O)CCc2nc3sc4c(c3c(=O)[nH]2)CCCC4)CC1 | inconclusive [inhibitor, full curve, poor fit] |
| COc1ccc(NC(=O)CC2Sc3ncnn3C2=O)cc1 (configuration not stated) | inconclusive [inhibitor, partial curve] |
| COc1ccc(NC(=O)c2cc3n(n2)C(C(F)(F)F)CC(c2ccc(OC)cc2)N3)cc1 (configuration not stated) | inconclusive [inhibitor, full curve, poor fit] |
| CN1C(=O)c2ccccc2N(C)C1c1ccc(F)cc1 (configuration not stated) | inactive |
| O=C1NC(=O)N(Cc2ccco2)C(=O)/C1=C\c1cccn1CCOc1ccc(Cl)cc1 | inconclusive [inhibitor, partial curve] |
| Cc1cc(C)c2c(CC(=O)NCc3ccco3)coc2c1 | inconclusive [inhibitor, full curve, poor fit] |
| CCOCC(=O)Nc1cc(C(=O)NCCc2ccccc2)ccc1Cl | inactive |
| CC(Nc1ncnc2nc[nH]c12)c1ccccc1 (configuration not stated) | inconclusive [inhibitor, partial curve] |
| COc1ccc(CC(=O)OCC(=O)N2CCN(S(=O)(=O)c3ccc(C)cc3C)CC2)cc1 | inconclusive [inhibitor, full curve, poor fit] |
| c1ccc(OCCCCn2cnc3ccccc32)cc1 | inactive |
| CCOc1ccc(C(=O)C[n+]2cccc3cc(C)ccc32)cc1 | inconclusive [inhibitor, full curve, poor fit] |
| O=C(CN1C(=O)C2CC=CCC2C1=O)Nc1ccccc1N1CCCC1 (configuration not stated) | inconclusive [inhibitor, full curve, poor fit] |
| CCOc1ccccc1CN1CCNC(=O)C1CC(=O)NCc1cc(C)n(C)n1 (configuration not stated) | inactive |
| CC(C)(C)c1ccc(C(=O)N/C(=C/c2cccs2)C(=O)NCc2ccco2)cc1 | inconclusive [inhibitor, full curve, poor fit] |
| Cc1ccc(C)c(S(=O)(=O)N2CCN(C(=O)c3sccc3C)CC2)c1 | inconclusive [inhibitor, partial curve] |
| COCC(=O)N(CCc1ccc(OC)cc1)Cc1nc2ccccc2c(=O)[nH]1 | inconclusive [inhibitor, full curve, poor fit] |
| CC1CCN(C(=O)CSc2nc3c(cnn3-c3ccc(Cl)cc3)c(=O)[nH]2)CC1 | inconclusive [inhibitor, full curve, poor fit] |
| COc1ccc(N2Cc3cccc(C(=O)N4CCN(C(=O)c5ccco5)CC4)c3C2=O)cc1 | inconclusive [inhibitor, full curve, poor fit] |
| CCN(CC)CCn1c(=S)[nH]c2ccccc2c1=O | inconclusive [inhibitor, partial curve] |

| Structure (SMILES) | Potency |
| --- | --- |
| Cc1nnc(SCC(=O)N(C)C2CCCCC2)s1 | inactive |
| CCOc1c(Cl)cc(C(=O)NCCN2CCCCC2)cc1Cl | inconclusive [inhibitor, single point] |
| Oc1ccccc1/C=N/n1cnnc1 | inactive |
| Cc1cc(C)cc(NC(=O)CSc2nccn2C2CCCC2)c1 | inactive |
| N#Cc1c(N)n(CCNC(=O)c2cccs2)c2nc3ccccc3nc12 | inconclusive [inhibitor, full curve, poor fit] |
| CCCn1nnc(NC(=S)NC(=O)Cc2ccccc2)n1 | inconclusive [inhibitor, partial curve, poor fit] |
| CCOC(=O)c1c(NCc2ccccc2)n[nH]c1C | inconclusive [inhibitor, single point] |
| CC1=C(C(=O)OCCCBr)C(c2ccc3c(c2)OCO3)NC(=O)N1 (configuration not stated) | inactive |
| Cc1oc(-c2cccc(Br)c2)nc1CN1CCC(C(=O)NCc2ccccc2)CC1 | inactive |
| CCC(CC)NC(=O)c1cccc([N+](=O)[O-])c1C | inconclusive [inhibitor, full curve, poor fit] |
| CN(CC(=O)Nc1cccc(F)c1)C(=O)CN1C(=O)NC2(CCCCC2)C1=O | inconclusive [inhibitor, full curve, poor fit] |
| CC(C)CN(C(=O)COc1ccc([N+](=O)[O-])cc1)c1c(N)n(CC(C)C)c(=O)[nH]c1=O | inconclusive [inhibitor, partial curve, poor fit] |
| O=C(NCc1ccccc1Cl)c1cc(-c2ccccc2)n[nH]1 | inactive |
| C=CCOc1ccc(/C(CC)=N/O)c(OC)c1 | inactive |
| O=C(Cn1c(=O)sc2ccccc21)Nc1ccccc1C(=O)O | inconclusive [inhibitor, full curve, poor fit] |
| CC(=O)OC1C2CCC1C(N1CCCCC1)CC2 (configuration not stated) | inconclusive [inhibitor, partial curve] |
| Cc1ccccc1-n1c(-c2ccc(=O)[nH]n2)n[nH]c1=S | inactive |
| CC(=O)N1c2c(cc(Br)cc2S(=O)(=O)NCc2ccc3c(c2)OCO3)CC1C (configuration not stated) | inconclusive [inhibitor, full curve] |
| CCCn1c(SCC(=O)Nc2nonc2C)nnc1-c1ccoc1C | inconclusive [inhibitor, full curve, poor fit] |
| COc1ccc(C(c2nnnn2Cc2cccs2)N2CCN(c3ccccc3F)CC2)cc1OC (configuration not stated) | inconclusive [inhibitor, full curve, poor fit] |
| CC(C)C(c1nnnn1C1CCCC1)N1CCc2ccccc21 (configuration not stated) | inactive |
